This is an account of results in PMC12820563, “FoxP3 forms a head-to-head dimer in vivo and stabilizes its multimerization on adjacent microsatellites”.

This is one part of the list.

This test addresses T1, MBP-FoxP1dN (Mus musculus, UniProt P58462 326-579).
T1 sequence: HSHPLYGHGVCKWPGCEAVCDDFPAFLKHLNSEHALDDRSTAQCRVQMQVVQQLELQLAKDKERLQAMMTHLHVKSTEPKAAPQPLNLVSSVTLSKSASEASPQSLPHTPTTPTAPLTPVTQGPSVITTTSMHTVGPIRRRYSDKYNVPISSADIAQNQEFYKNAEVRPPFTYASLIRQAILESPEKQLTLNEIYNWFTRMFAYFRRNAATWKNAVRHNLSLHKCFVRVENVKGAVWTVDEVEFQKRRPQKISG
Nature of the test: PD-seq (MBP pull-down with sequencing); 20 mM Tris-HCl pH 7.5, 100 mM NaCl, 1.5 mM MgCl2, 0.4 uM protein, 0.1 uM dsDNA library, 30 min, room temperature, amylose pull-down; high values mean tight binding. Particulars: protein: recombinant; tags: His6-MBP; chain copies: 2; dsDNA, one strand shown. In a few lines:
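Binding is the reads-per-million enrichment of pull-down relative to input, pooled across replicates. For this, 0.4 µM His6-MBP-tagged mouse FoxP3 or FoxP1 fragment lacking the N-terminus, made in E. coli, was incubated with 0.1 µM Klenow-filled double-stranded degenerate DNA library for 30 min at room temperature in Tris pH 7.5 buffer with NaCl and MgCl2. Complexes bound to amylose resin were washed three times before proteinase K released the DNA for PCR barcoding and Illumina sequencing.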
For the sequence “GATGATTGTTCTCCCAGCTGATGAATTGTCAGTCTCGAGTAAACAAATTTTCCTAATCTTTCTGTTCAAGCGCCATCTAC”, the binding signal was 0.947 RPM ratio (pull-down/input). For the sequence “GATGATTGTTCTCCCAGCTGATGAATTAATGGACTCGAGTAAACAAATTTTCCTAATCTTTCTGTTCAAGCGCCATCTAC”, the binding signal is 0.859 RPM ratio (pull-down/input).

For “GATGATTGTTCTCCCAGCTGATGAATTAGTTGAATCGAGTAAACAAATTTTCCTAATCTTTCTGTTCAAGCGCCATCTAC”, the binding signal is 1.01 RPM ratio (pull-down/input). As to “GATGATTGTTCTCCCAGCTGATGAATTAGTTGTCTCGAGTAAACAAATTTTCCTAATCTTTCTGTTCAAGCGCCATCTAC”, the binding signal was 1.15 RPM ratio (pull-down/input). In the case of “GATGATTGTTCTCCCAGCTGATGAATTCGTCGTCTCGAGTAAACAAATTTTCCTAATCTTTCTGTTCAAGCGCCATCTAC”, the binding signal is 0.867 RPM ratio (pull-down/input). Under “GATGATTGTTCTCCCAGCTGATGAATTATTACAATCGAGTAAACAAATTTTCCTAATCTTTCTGTTCAAGCGCCATCTAC” stands 1.49 RPM ratio (pull-down/input); under “GATGATTGTTCTCCCAGCTGATGAATTAAGGGGTTCGAGTAAACAAATTTTCCTAATCTTTCTGTTCAAGCGCCATCTAC”, 0.849 RPM ratio (pull-down/input). Consider “GATGATTGTTCTCCCAGCTGATGAATTACCAATATCGAGTAAACAAATTTTCCTAATCTTTCTGTTCAAGCGCCATCTAC”, for which the binding signal was 1.79 RPM ratio (pull-down/input). Under “GATGATTGTTCTCCCAGCTGATGAATTGCCCGGCTCGAGTAAACAAATTTTCCTAATCTTTCTGTTCAAGCGCCATCTAC” stands 0.786 RPM ratio (pull-down/input); under “GATGATTGTTCTCCCAGCTGATGAATTAGGGTGTTCGAGTAAACAAATTTTCCTAATCTTTCTGTTCAAGCGCCATCTAC”, 0.925 RPM ratio (pull-down/input). Consider “GATGATTGTTCTCCCAGCTGATGAATTTTAGATCTCGAGTAAACAAATTTTCCTAATCTTTCTGTTCAAGCGCCATCTAC”, for which the binding signal was 0.866 RPM ratio (pull-down/input). Under “GATGATTGTTCTCCCAGCTGATGAATTTCCGTCATCGAGTAAACAAATTTTCCTAATCTTTCTGTTCAAGCGCCATCTAC” stands 1 RPM ratio (pull-down/input); under “GATGATTGTTCTCCCAGCTGATGAATTCTGCTCGTCGAGTAAACAAATTTTCCTAATCTTTCTGTTCAAGCGCCATCTAC”, 0.836 RPM ratio (pull-down/input); under “GATGATTGTTCTCCCAGCTGATGAATTGTATTCTTCGAGTAAACAAATTTTCCTAATCTTTCTGTTCAAGCGCCATCTAC”, 1.26 RPM ratio (pull-down/input). In the case of “GATGATTGTTCTCCCAGCTGATGAATTAGTTAGGTCGAGTAAACAAATTTTCCTAATCTTTCTGTTCAAGCGCCATCTAC”, the binding signal was 0.922 RPM ratio (pull-down/input). As to “GATGATTGTTCTCCCAGCTGATGAATTGGCAATCTCGAGTAAACAAATTTTCCTAATCTTTCTGTTCAAGCGCCATCTAC”, the binding signal was 0.856 RPM ratio (pull-down/input). For “GATGATTGTTCTCCCAGCTGATGAATTTGCAGCTTCGAGTAAACAAATTTTCCTAATCTTTCTGTTCAAGCGCCATCTAC” the value was 0.912 RPM ratio (pull-down/input); for “GATGATTGTTCTCCCAGCTGATGAATTTCAGTACTCGAGTAAACAAATTTTCCTAATCTTTCTGTTCAAGCGCCATCTAC”, 0.776 RPM ratio (pull-down/input); for “GATGATTGTTCTCCCAGCTGATGAATTGTACAACTCGAGTAAACAAATTTTCCTAATCTTTCTGTTCAAGCGCCATCTAC”, 1.03 RPM ratio (pull-down/input). Turning to “GATGATTGTTCTCCCAGCTGATGAATTGTACGGATCGAGTAAACAAATTTTCCTAATCTTTCTGTTCAAGCGCCATCTAC”, the binding signal was 0.867 RPM ratio (pull-down/input). On to “GATGATTGTTCTCCCAGCTGATGAATTAGTCACATCGAGTAAACAAATTTTCCTAATCTTTCTGTTCAAGCGCCATCTAC”, for which the binding signal was 1.16 RPM ratio (pull-down/input).

For the sequence “GATGATTGTTCTCCCAGCTGATGAATTAGCCACATCGAGTAAACAAATTTTCCTAATCTTTCTGTTCAAGCGCCATCTAC”, the binding signal was 1.01 RPM ratio (pull-down/input). As for “GATGATTGTTCTCCCAGCTGATGAATTACCCAGCTCGAGTAAACAAATTTTCCTAATCTTTCTGTTCAAGCGCCATCTAC”, the binding signal was 0.917 RPM ratio (pull-down/input). With “GATGATTGTTCTCCCAGCTGATGAATTCTCAAGGTCGAGTAAACAAATTTTCCTAATCTTTCTGTTCAAGCGCCATCTAC”, the binding signal was 0.736 RPM ratio (pull-down/input). For “GATGATTGTTCTCCCAGCTGATGAATTTATCGCCTCGAGTAAACAAATTTTCCTAATCTTTCTGTTCAAGCGCCATCTAC”, the binding signal is 1.09 RPM ratio (pull-down/input).

In the case of “GATGATTGTTCTCCCAGCTGATGAATTGCGGACCTCGAGTAAACAAATTTTCCTAATCTTTCTGTTCAAGCGCCATCTAC”, the binding signal was 0.95 RPM ratio (pull-down/input). As to “GATGATTGTTCTCCCAGCTGATGAATTTACCTTATCGAGTAAACAAATTTTCCTAATCTTTCTGTTCAAGCGCCATCTAC”, the binding signal was 1.41 RPM ratio (pull-down/input). For “GATGATTGTTCTCCCAGCTGATGAATTGGCTCAATCGAGTAAACAAATTTTCCTAATCTTTCTGTTCAAGCGCCATCTAC” the value was 0.972 RPM ratio (pull-down/input); for “GATGATTGTTCTCCCAGCTGATGAATTTTGAGCATCGAGTAAACAAATTTTCCTAATCTTTCTGTTCAAGCGCCATCTAC”, 1.18 RPM ratio (pull-down/input); for “GATGATTGTTCTCCCAGCTGATGAATTCGAAAAGTCGAGTAAACAAATTTTCCTAATCTTTCTGTTCAAGCGCCATCTAC”, 0.816 RPM ratio (pull-down/input).

For the sequence “GATGATTGTTCTCCCAGCTGATGAATTTCGCCCGTCGAGTAAACAAATTTTCCTAATCTTTCTGTTCAAGCGCCATCTAC”, the binding signal is 0.834 RPM ratio (pull-down/input). Consider “GATGATTGTTCTCCCAGCTGATGAATTATTGGATTCGAGTAAACAAATTTTCCTAATCTTTCTGTTCAAGCGCCATCTAC”, for which the binding signal was 1.05 RPM ratio (pull-down/input).
